Test results taken from the supplement of paper PMC4723716.
± gives the uncertainty stated by the source. Whole data set: some 9,900 compounds, median “viability index relative to DMSO control” near 1, cut for the lowest 2% near 0.85. The list shows a part of the results.

What follows are compounds tested on Plasmodium falciparum NF54 stage V gametocytes (assay: viability index relative to DMSO control (fraction); higher = less gametocyte killing). Conditions: 2.5 µM, library set: Broad Institute DOS, incubation time: 72 h.
In short: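 Viability index is the count of red-stained particles in a well divided by the plate mean of solvent-only wells. Particles of 20–70 µm2 were counted in one imaged field per well after one to two hours with 3 µl of 2.5 µM MitoTracker Red CMXRos and 0.13% saponin. Before staining, P. falciparum NF54 stage V gametocytes in serum-free medium (0.75% gametocytemia, 1.25% hematocrit, 10 µl, 1,536-well plates) were kept with compound at 2.5 µM for 72 hr at 37°C under low oxygen.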

| Compound | viability index |
| --- | --- |
| COc1ccc(C[C@@H]2CCn3nncc3COC[C@@H](c3ccccc3)NC2=O)cc1 | 1.1 ± 0.049 |
| CC(C)C(=O)Nc1ccc2c(c1)C(=O)N(C)[C@@H]1CC[C@H](CC(=O)NCCc3ccccc3)O[C@H]1CO2 | 1.07 ± 0.088 |
| CO[C@H]1CN(C)C(=O)c2cc(NC(=O)Cc3ccccc3)ccc2OC[C@@H](C)N(C(=O)c2ccccc2F)C[C@H]1C | 1.06 ± 0.066 |
| COc1ccc(S(=O)(=O)Nc2cccc3c2O[C@H](CN(C)CC2CCCCC2)[C@@H](C)CN([C@@H](C)CO)C3=O)cc1 | 0.951 ± 0.18 |
| O=C(c1ccccc1F)N1C[C@@H]2[C@H](c3ccccc31)[C@@H](CO)N2Cc1ccc2c(c1)OCO2 | 1.06 ± 0.18 |
| COc1ccc(S(=O)(=O)N(C)C[C@@H]2Oc3ccc(N(C)C)cc3CC(=O)N([C@@H](C)CO)C[C@@H]2C)cc1 | 1.02 ± 0.029 |
| N#C[C@@H]1[C@H](c2ccccc2-c2cccc(F)c2)[C@H](CO)N1C(=O)CN1CCOCC1 | 1.15 ± 0.068 |
| COc1cccc(-c2ccccc2[C@@H]2[C@@H](C#N)N(C(=O)Cc3ccccc3)[C@H]2CO)c1 | 1.12 ± 0.079 |
| O=C(C[C@H]1CC[C@H]2[C@@H](COC[C@H](O)CN2C(=O)Nc2ccc(Cl)cc2)O1)NCC1CCCCC1 | 1.06 ± 0.038 |
| O=C(Nc1cccc(Cl)c1)N1[C@@H]2CNC[C@H]1[C@@H]2c1ccc(/C=C/c2ccccc2)cc1 | 1.1 ± 0.049 |
| COc1ccc2c3c([C@H](CO)N(C[C@]33CCN(C)CC3)C(=O)Cc3ccccn3)n(C)c2c1 | 1.07 ± 0.054 |
| CO[C@@H]1CN(C)C(=O)c2ccc(NC(=O)Nc3c(C)noc3C)cc2OC[C@@H](C)N(CCC(F)(F)F)C[C@H]1C | 1.09 ± 0.058 |
| C[C@@H]1CN([C@@H](C)CO)C(=O)c2cc(NC(=O)CCCN(C)C)ccc2O[C@H]1CN(C)Cc1ccc(Cl)c(Cl)c1 | 0.953 ± 0.062 |
| CN1c2ccc(C#Cc3cccnc3)cc2[C@H]2[C@H](CCN2C(=O)CN2CCOCC2)[C@@H]1CO | 1.07 ± 0.062 |
| CC(=O)N1[C@H](CO)[C@H](c2ccccc2)[C@H]1CN(CC1CCC1)C(=O)CN(C)C | 0.994 ± 0.02 |
| CCc1cnc(N2[C@H](C#N)[C@H](c3ccc(C#Cc4ccccc4F)cc3)[C@H]2CO)s1 | 0.8872 ± 0.0045 |
| CC(C)C[C@H]1COCc2cn(nn2)CC[C@H](C)C(=O)N1 | 1.082 ± 0.0066 |
| Fc1ccccc1-c1ccc([C@H]2[C@H]3CNC[C@@H]2N3CC2CC2)cc1 | 1.06 ± 0.075 |
| O=C(NCCCN1CCOCC1)[C@H]1[C@H](CO)[C@H]2Cn3c(ccc(C4=CCCCC4)c3=O)[C@@H]1N2 | 1.02 ± 0.0041 |
| CCCC#Cc1ccc2c(c1)O[C@@H](CN(C)Cc1ccccn1)[C@@H](C)CN([C@H](C)CO)S2(=O)=O | 0.958 ± 0.061 |
| CN(C)Cc1cn(CC[C@H]2CC[C@H](NC(=O)Cc3cccnc3)[C@H](CO)O2)nn1 | 0.925 ± 0.032 |
| CN(C)C(=O)c1ccc(-c2ccc([C@@H]3[C@@H]4CN(Cc5cncnc5)C[C@H]3N4)cc2)cc1 | 1.17 ± 0.019 |
| COc1ccc2c3c([nH]c2c1)[C@@H](CO)N(Cc1nccs1)C[C@]31CCN(Cc2cccnc2)CC1 | 0.98 ± 0.062 |
| CCN(C[C@@H]1[C@@H](c2ccccc2)[C@@H](CO)N1C(=O)COC)S(C)(=O)=O | 1 ± 0.025 |

| Compound | viability index |
| --- | --- |
| CCC(=O)N1CC2(C1)[C@H](c1ccc(-c3ccc(F)cc3)cc1)[C@H](CO)N2C(C)=O | 0.9574 ± 0.0023 |
| CC(C)NC(=O)N(C)C[C@H]1Oc2ccc(NC(=O)Cc3ccccc3)cc2CC(=O)N([C@@H](C)CO)C[C@H]1C | 0.99 ± 0.024 |
| CCS(=O)(=O)N1C[C@@]2(C1)CN(Cc1ccc3OCOc3c1)[C@H](CO)c1c2c2ccc(OC)cc2n1C | 1.03 ± 0.032 |
| C/C=C/c1ccc([C@@H]2[C@@H](CO)N(C(C)=O)C23CN(C(=O)NC2CCCCC2)C3)cc1 | 1.11 ± 0.032 |
| COc1ccccc1CNC(=O)C[C@H]1CC[C@H]2[C@@H](COC[C@@H](O)CN2Cc2ccc3c(c2)OCO3)O1 | 1.12 ± 0.037 |
| COc1cccc(S(=O)(=O)N(C)C[C@@H]2Oc3cc(Br)ccc3S(=O)(=O)N([C@@H](C)CO)C[C@@H]2C)c1 | 1.07 ± 0.041 |
| O=C(C[C@@H]1CC[C@H]2[C@@H](COC[C@@H](O)CN2S(=O)(=O)c2cccc(Cl)c2)O1)N1CCOCC1 | 1.03 ± 0.084 |
| COc1ccc(S(=O)(=O)N2C[C@@H](O)COC[C@@H]3O[C@H](CC(=O)N[C@H]4CCN(Cc5ccccc5)C4)CC[C@H]32)cc1 | 1.111 ± 0.0036 |
| COc1ccc(S(=O)(=O)Nc2ccc3c(c2)C(=O)N([C@H](C)CO)C[C@H](C)[C@H](CN(C)Cc2ccc(C(F)(F)F)cc2)OCCCC[C@@H](C)O3)cc1 | 1.14 ± 0.026 |
| N#C[C@H]1[C@@H](c2ccccc2)[C@@H](CO)N1C(=O)c1ccccc1F | 1.042 ± 0.002 |
| CCCNC(=O)N(C)C[C@@H]1Oc2ncc(C#CC3CCCCC3)cc2C(=O)N([C@@H](C)CO)C[C@H]1C | 1.11 ± 0.039 |
| C/C=C/c1ccc([C@H]2[C@@H](CO)N(c3nc(C)c(C)s3)[C@@H]2CNCC(C)C)cc1 | 0.92 ± 0.057 |
| COc1ccc(-c2ccccc2[C@@H]2[C@@H](C#N)N(C(=O)c3cccnc3)[C@@H]2CO)cc1 | 1.12 ± 0.063 |
| CO[C@H]1CN(C)C(=O)c2ccc(NS(=O)(=O)c3ccc(C)cc3)cc2OC[C@H](C)N(C)C[C@@H]1C | 1.13 ± 0.072 |
| COc1ccccc1-c1cn(CC[C@@H]2CC[C@H](NC(=O)C3CCCCC3)[C@H](CO)O2)nn1 | 1.03 ± 0.038 |
| C[C@H]1CN([C@@H](C)CO)C(=O)Cc2cc(NC(=O)C3CCCCC3)ccc2O[C@H]1CN(C)Cc1ccc(Cl)c(Cl)c1 | 1.02 ± 0.031 |
| CN1C(=O)c2cc(NS(=O)(=O)c3cccc(F)c3)ccc2OC[C@@H]2O[C@H](CC(=O)NCCN3CCCCC3)CC[C@@H]21 | 0.958 ± 0.062 |
| Cc1ccccc1S(=O)(=O)N1C[C@@H](O)COC[C@@H]2O[C@@H](CC(=O)N3CCCCC3)CC[C@H]21 | 1.09 ± 0.086 |
| COc1ccccc1S(=O)(=O)N(C)C[C@@H]1OCc2cn(nn2)CCCC(=O)N([C@@H](C)CO)C[C@@H]1C | 1.05 ± 0.021 |
| C[C@@H]1CCCCO[C@@H](CN(C)CC2CCCCC2)[C@H](C)CN([C@@H](C)CO)C(=O)c2cc(NS(C)(=O)=O)ccc2O1 | 1.08 ± 0.061 |
| COc1cccc(C#Cc2ccc([C@@H]3[C@H]4CN(C(=O)Cc5cccnc5)CC(=O)N4[C@H]3CO)cc2)c1 | 1.06 ± 0.034 |
| C/C=C/c1ccc([C@H]2[C@@H](CO)N(CC3CCOCC3)C23CN(C(=O)COC)C3)cc1 | 1.04 ± 0.055 |
| N#C[C@H]1[C@@H](c2ccccc2)[C@@H](CO)N1C(=O)c1cc(Cl)cc(Cl)c1 | 1.08 ± 0.056 |
| COc1cccc(S(=O)(=O)N2CC[C@H]3[C@@H](CO)N(C)c4ccc(-c5ccccc5OC)cc4[C@H]32)c1 | 1.09 ± 0.038 |

| Compound | viability index |
| --- | --- |
| C[C@@H]1CN([C@H](C)CO)C(=O)c2cc(N(C)C)ccc2O[C@@H](C)CCCCO[C@@H]1CN(C)S(=O)(=O)c1cn(C)cn1 | 0.98 ± 0.065 |
| C[C@@H]1CN([C@@H](C)CO)C(=O)CCCn2nncc2CO[C@H]1CN(C)Cc1ccc2cccnc2c1 | 0.991 ± 0.017 |
| Cc1cc(C(=O)Nc2ccc3c(c2)C(=O)N(C)[C@H]2CC[C@@H](CC(=O)O)O[C@H]2CO3)no1 | 0.945 ± 0.024 |
| CCc1cnc(N2[C@H](CO)[C@@H](c3ccc(C#Cc4ccccc4F)cc3)[C@@H]2C#N)s1 | 1.11 ± 0.019 |
| CN(C)C(=O)C[C@H]1CC[C@@H]2[C@@H](COc3ccc(NC(=O)C4CCCCC4)cc3C(=O)N2C)O1 | 0.976 ± 0.13 |
| CO[C@H]1CN(C)C(=O)c2ccc(NS(C)(=O)=O)cc2OC[C@H](C)N(CC2CC2)C[C@H]1C | 1.043 ± 0.003 |
| CNC[C@H]1Oc2c(N)cccc2C(=O)N([C@H](C)CO)C[C@H]1C | 1.04 ± 0.08 |
| N#C[C@H]1[C@@H](c2ccccc2-c2ccc(F)cc2)[C@H](CO)N1C(=O)Cc1cccnc1 | 1.11 ± 0.048 |
| N#Cc1cccc(-c2ccc3c(c2)[C@@H]2[C@@H](CCN2S(=O)(=O)c2ccc(F)cc2)[C@H](CO)N3)c1 | 0.844 ± 0.062 |
| CCC(=O)N1C[C@]2(CCN(CC2)C(=O)Cc2ccccc2)c2c([C@@H]1CO)n(C)c1cc(OC)ccc21 | 0.935 ± 0.13 |
| C[C@@H](NC(=O)[C@@H]1[C@@H](CO)[C@@H]2Cn3c(ccc(-c4ccccc4F)c3=O)[C@H]1N2)c1ccccc1 | 1.05 ± 0.019 |
| O=C(C[C@H]1CC[C@H]2[C@@H](COC[C@@H](O)CN2CC2CCOCC2)O1)NCc1ccc(Cl)cc1 | 1.08 ± 0.016 |
| COCC(=O)N1C[C@H](C)[C@H](OC)CN(C)C(=O)c2ccc(NC(=O)Nc3cccc(F)c3)cc2OC[C@@H]1C | 1 ± 0.03 |
| O=C(c1ccc2c(c1)OCO2)N1CC[C@@H]2[C@@H](CO)Nc3ccc(C#Cc4ccccc4)cc3[C@@H]21 | 1.024 ± 0.0029 |
| CO[C@H]1CN(C)C(=O)c2cc(NC(=O)c3ccccc3F)ccc2OC[C@@H](C)N(CC2CCOCC2)C[C@H]1C | 1.04 ± 0.011 |
| CO[C@@H]1CN(C)C(=O)c2ccc(NC(=O)c3ccno3)cc2OC[C@@H](C)N(S(C)(=O)=O)C[C@H]1C | 1.06 ± 0.08 |
| C[C@@H]1CN([C@H](C)CO)S(=O)(=O)c2ccc(C#CC(C)(C)O)cc2O[C@H]1CN(C)Cc1ccc(F)cc1 | 0.87 ± 0.065 |
| C[C@@H]1CCCCO[C@@H](CN(C)C(=O)CCC(F)(F)F)[C@H](C)CN([C@@H](C)CO)C(=O)c2cc(NC(=O)C3CCCCC3)ccc2O1 | 1.13 ± 0.072 |
| COc1ccc(C#Cc2ccc([C@@H]3[C@@H](CO)N4C(=O)CN(C(=O)NC(C)C)C[C@H]34)cc2)cc1 | 0.985 ± 0.038 |
| Cc1noc(C)c1C(=O)N(C)C[C@@H]1OCc2ccccc2-c2ccccc2C(=O)N([C@H](C)CO)C[C@H]1C | 0.952 ± 0.066 |
| COCC(=O)N1C[C@@]2(C1)CN([C@@H](CO)c1[nH]c3cc(OC)ccc3c21)C(=O)Nc1ccccc1F | 1.03 ± 0.078 |
| COc1ccc2c3c([C@@H](CO)N(C)C[C@]33CCN(CC3)C(=O)CN3CCOCC3)n(C)c2c1 | 0.9699 ± 0.0061 |
| COc1ccc2c3c([nH]c2c1)[C@@H](CO)N(CC1CC1)C[C@]31CCN(CC1)C(=O)Nc1cccc(F)c1 | 1.06 ± 0.017 |
